These are yes or no findings as the source states them, for the method shown. Binding seen in cells or lysates may run through a third protein. Some binding calls cover weakened binding; strength is not graded here. For part of these data: Where a sequence is shown, tags or fusion partners need not be part of it.

The chains behind the UniProt entries cited, without tags or fusion partners.
UniProt O95271: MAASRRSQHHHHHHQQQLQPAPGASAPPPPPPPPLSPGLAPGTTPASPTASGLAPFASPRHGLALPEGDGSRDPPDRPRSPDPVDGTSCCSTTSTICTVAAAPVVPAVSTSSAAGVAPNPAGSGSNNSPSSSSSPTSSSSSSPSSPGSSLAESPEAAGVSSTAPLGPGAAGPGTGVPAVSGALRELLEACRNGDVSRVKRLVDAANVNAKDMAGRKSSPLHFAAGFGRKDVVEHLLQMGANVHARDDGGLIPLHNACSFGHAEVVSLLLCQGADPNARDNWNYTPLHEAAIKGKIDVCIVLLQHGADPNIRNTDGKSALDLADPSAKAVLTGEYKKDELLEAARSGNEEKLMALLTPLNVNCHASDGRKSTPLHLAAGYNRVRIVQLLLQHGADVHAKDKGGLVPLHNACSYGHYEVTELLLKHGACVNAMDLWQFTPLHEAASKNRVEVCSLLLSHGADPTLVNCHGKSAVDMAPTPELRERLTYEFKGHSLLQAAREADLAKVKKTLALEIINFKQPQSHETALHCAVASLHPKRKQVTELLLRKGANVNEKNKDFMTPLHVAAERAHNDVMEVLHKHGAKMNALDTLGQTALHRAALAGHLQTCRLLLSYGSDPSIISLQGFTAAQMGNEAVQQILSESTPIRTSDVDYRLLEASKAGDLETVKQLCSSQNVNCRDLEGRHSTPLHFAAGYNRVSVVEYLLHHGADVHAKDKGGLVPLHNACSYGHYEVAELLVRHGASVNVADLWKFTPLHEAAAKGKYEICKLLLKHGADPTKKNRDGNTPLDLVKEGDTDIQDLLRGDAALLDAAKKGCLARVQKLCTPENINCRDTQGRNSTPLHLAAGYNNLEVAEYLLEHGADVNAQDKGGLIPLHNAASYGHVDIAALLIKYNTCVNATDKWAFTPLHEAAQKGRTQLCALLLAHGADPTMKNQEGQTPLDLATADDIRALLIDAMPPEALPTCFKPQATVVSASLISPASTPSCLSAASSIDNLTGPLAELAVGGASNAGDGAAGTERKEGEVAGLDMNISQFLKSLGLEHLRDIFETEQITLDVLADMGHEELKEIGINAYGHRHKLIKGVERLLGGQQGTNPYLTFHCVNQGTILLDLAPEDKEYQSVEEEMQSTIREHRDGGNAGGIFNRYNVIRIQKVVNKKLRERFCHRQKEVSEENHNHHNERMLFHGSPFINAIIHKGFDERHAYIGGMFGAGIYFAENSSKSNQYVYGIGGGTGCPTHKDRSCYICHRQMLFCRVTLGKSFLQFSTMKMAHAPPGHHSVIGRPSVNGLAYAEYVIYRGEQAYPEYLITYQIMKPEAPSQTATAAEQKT

Test [1] concerns the target T1, Flag-tagged DTX2 (UniProt Q86UW9).
T1 sequence: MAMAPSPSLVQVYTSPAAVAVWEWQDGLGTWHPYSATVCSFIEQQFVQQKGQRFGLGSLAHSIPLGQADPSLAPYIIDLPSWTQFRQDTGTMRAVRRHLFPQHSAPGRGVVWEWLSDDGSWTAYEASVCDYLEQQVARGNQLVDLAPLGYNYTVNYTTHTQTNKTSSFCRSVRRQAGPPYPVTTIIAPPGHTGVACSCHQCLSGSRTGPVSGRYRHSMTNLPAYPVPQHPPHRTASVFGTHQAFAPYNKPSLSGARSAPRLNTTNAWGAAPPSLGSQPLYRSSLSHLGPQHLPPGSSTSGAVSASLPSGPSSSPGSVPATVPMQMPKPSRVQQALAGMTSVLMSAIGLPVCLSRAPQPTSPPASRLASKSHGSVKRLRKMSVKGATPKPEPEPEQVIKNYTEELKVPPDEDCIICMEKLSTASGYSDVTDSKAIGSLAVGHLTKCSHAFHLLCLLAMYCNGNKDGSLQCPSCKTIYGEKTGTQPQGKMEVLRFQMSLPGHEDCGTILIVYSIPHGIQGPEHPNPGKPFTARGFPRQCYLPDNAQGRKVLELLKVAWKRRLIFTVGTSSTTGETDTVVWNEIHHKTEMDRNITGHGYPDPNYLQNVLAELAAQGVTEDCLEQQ
Put plainly: co-IP; as a3, cells treated with tankyrase inhibitor #8 (TNKSi, 10 µM): TNKS1/2 DKO HEK293T cells cotransfected with TNKS1 and Flag plasmids; anti-Flag beads; immunoblot.

Test [2] has as its target T2, Flag-tagged RNF138 (UniProt Q8WVD3).
T2 sequence: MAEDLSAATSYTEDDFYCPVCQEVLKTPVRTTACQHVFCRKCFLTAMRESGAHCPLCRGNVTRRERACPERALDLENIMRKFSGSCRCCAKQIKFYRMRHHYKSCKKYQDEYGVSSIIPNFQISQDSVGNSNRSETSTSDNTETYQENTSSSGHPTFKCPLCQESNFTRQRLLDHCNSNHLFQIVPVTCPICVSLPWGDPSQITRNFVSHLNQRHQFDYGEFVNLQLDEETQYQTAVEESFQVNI
The description is as above.

Test [3] deals with Flag-epitope-tagged RNF166 (FlagRNF166) (UniProt Q96A37). Put plainly: co-IP; Supplementary Fig. 1C: cells transfected with TNKS1 WT or CD and the E3 ligases; immunoprecipitates probed for TNKS1 and endogenous PARP1 (legend not shown).

Consider “TNKS1 (transfected, TNKS.WT) (from UniProt O95271 1-1327) (enzyme)”, for which the binding entry in test [1] is listed as “no binding (condition: with TNKSi (10 µM))”; in test [2], “binds weakly”; in test [3] it was “binds”.

The values are drawn from PMC10632493.
